Measured values taken from the RNAGym collection of RNA variant scans (doi:10.7554/elife.90254).
Read counts are not given, so values of variants with three or more changes are uncertain.

B1: LINE1-mini (parent)
chain: GGCAGAGCUCAACACAGCGUGGCAAAGUGGCUGUGGCUAGACUGCC

Variants of: B1
Test: self-cleavage, relative activity (ratio to wild type); higher = more cleavage; in vitro, sequencing; the parent is a self-cleaving ribozyme

| Variant | self-cleavage |
| --- | --- |
| G5A C10G U20C | 0.04 |
| G5A G22U G35A | 0.16 |
| G5A G19U C37G A39C | 0.01 |
| G5A C15U C23A | 0.05 |
| G5A C23G A26G C37G G44U | 0.02 |
| G5A U9G A26C U38C | 0.16 |
| G5A G7U G27A C31A G44A | 0.1 |
| G5A U9C G22U G27U C31G | 0.01 |
| G5C A14G G29A U43C | 0.02 |
| G5A G29A G30A | 0.1 |
| G5A U20A U32C G36C G40A | 0.01 |
| G5A C13U G21U | 0.65 |
| G5A U20C A41U | 0.08 |
| G5A C13A A25U U32A | 0.04 |
| G5C A14U G40U | 0.05 |
| G5A G30C U34G U43A | 0.03 |
| G5A U9A A11G C18A G36U | 0.01 |
| G5A U9C C10U | 0.01 |
| G5A G21A G33C G40A | 0.11 |
| G5A G7A U28C | 0.17 |
| G5A U9C C23G G27C | 0.03 |
| G5A G7U U34G | 0.12 |
| G5A C15A G29U | 0.08 |
| G5A G19C G36A | 0.41 |

| Variant | self-cleavage |
| --- | --- |
| G5A G17C C31G U34A | 0.04 |
| G5A U9G C13G G17C G19C C23A | 0.08 |
| G5A G27U G30U | 0.13 |
| G5A U20G C31G G33C | 0.03 |
| G5A C18U C31U G33C G36U | 0.2 |
| G5A U9G A11C A24U | 0.02 |
| G5A G19A G33U | 0.13 |
| G5A C18G A25G | 0.2 |
| G5A C13U C15G A24U | 0.02 |
| G5C A16G G17C C23A G29A G33C | 0.03 |
| G5A C42A U43G | 0.02 |
| G5A U9C G27A A41C | 0.02 |
| G5A G19C A25G U34A C37U | 0.03 |
| G5A C10U A14C | 0.03 |
| G5C A11C U20G C31A | 0.03 |
| G5A G7C C8G A26C G44U | 0.03 |
| G5A C15U G21A A39G C45A | 0.03 |
| G5C A11U G27A C42G C46A | 0.03 |
| G5C A11U A16G C31A U38A U43A | 0.01 |
| G5A G17U G19C U28C C42A | 0.1 |
| G5A C13U G27A C45G | 0.2 |
| G5A G7C U20A A24U G27U C31U | 0.07 |
| G5A U28C G33U C37A | 0.05 |
| G5A C15G G33U G36C | 0.02 |

| Variant | self-cleavage |
| --- | --- |
| G5A G27A G33A C45G | 0.09 |
| G5A G21A U28C G29U G35U C37G U38G | 0.01 |
| G5A G7C G22C C37U U43A | 0.03 |
| G5A G29U G33A C37U C42A | 0.23 |
| G5A C15U G21C G29A G40U | 0.14 |
| G5A G19U A26C | 0.07 |
| G5C A14C G44U C45G | 0.03 |
| G5C A14U C15A G29C | 0.05 |
| G5A G27C U34A C37G C46G | 0.02 |
| G5A G19A C45G | 0.03 |
| G5A U28C G29C | 0.15 |
| G5A G35A G44A | 0.09 |
| G5A C10U U20A U32C G40A U43A | 0.03 |
| G5C A6G U9C C18A C23A G36U C45A | 0 |
| G5A C18G C23A | 0.1 |
| G5C A12U A26C | 0.05 |
| G5A C15U U32A G33U C46U | 0.07 |
| G5C A14G G29C | 0.01 |
| G5A G27U G33U U38A | 0.03 |
| G5A G7C C15U G35U C42U | 0.08 |
| G5A C18A A26U C37U | 0.06 |
| G5A C18G A39U | 0.08 |
| G5A C10U A16U C23A G29C | 0.02 |
| G5C A12G U28G | 0 |

| Variant | self-cleavage |
| --- | --- |
| G5A C18A A39U C46U | 0.02 |
| G5A C15A U28A U38C | 0.03 |
| G5A U20C U32C U38C | 0.03 |
| G5A G22C C31A C46A | 0.02 |
| G5A G17U C23G U32A | 0.06 |
| G5C A11U G36A U43G | 0 |
| G5A G22A C23G A25G U32C | 0.01 |
| G5A U9A G17A A41G | 0.01 |
| G5A C10G U34G C46U | 0.01 |
| G5A C13U C37G C42A | 0.04 |
| G5A U9C A12C G29A | 0.02 |
| G5C A16C G22A C23A G33U | 0.37 |
| G5A C18U A25U | 0.29 |
| G5A C18A G30U | 0.05 |
| G5A G19U C31U | 0.06 |
| G5A G22A U34A | 0.11 |
| G5A G27U C37A A41C | 0.03 |
| G5A G29U G30U U38C | 0.04 |
| G5A G7U C45U | 0.14 |
| G5A U20C C23A U32C | 0.06 |
| G5A G7C A26G C37G C45U | 0.09 |
| G5A U20A A25U C31G C37G | 0.01 |
| G5C A6U C42A | 0.23 |
| G5A C23A G29U | 0.26 |

| Variant | self-cleavage |
| --- | --- |
| G5A C15A C37A | 0.03 |
| G5A G17C G40A | 0.06 |
| G5A C13U A26G G40A G44A C45A | 0.06 |
| G5A G19A U38C | 0.06 |
| G5C A14C A41G | 0.03 |
| G5A U28C U34G A39C | 0.01 |
| G5A C18A C23A C46A | 0.08 |
| G5A G7C C10A C18G G33U | 0.01 |
| G5A G19U U43C | 0.17 |
| G5C A16C G17A G35C | 0.02 |
| G5A C18G G33A C45U | 0.1 |
| G5C A6G C46U | 0.04 |
| G5C A6U A12C | 0.03 |
| G5A U9C A11G G22A A24U G29U C42G | 0 |
| G5A U20G G29U U32A C37U | 0.1 |
| G5A C13U G29C | 0.13 |
| G5C A6G C45G | 0.05 |
| G5A C18A G33A | 0.01 |
| G5A G19A G40A U43A | 0.04 |
| G5A G33U A41U G44U | 0.13 |
| G5A G29C G40A | 0.02 |
| G5A C31A U34A G36U A41U | 0.07 |
| G5A G30A G44C | 0.05 |
| G5C A6U G44A | 0.03 |

| Variant | self-cleavage |
| --- | --- |
| G5A C10U C15U | 0.16 |
| G5C A6G U9G G33A U43C C45U | 0.01 |
| G5C A6U C15A G19A | 0.02 |
| G5A C18A G22U U34C A41G | 0.02 |
| G5A G29A C46U | 0.06 |
| G5A G21A G22C A26C G33A | 0.05 |
| G5C A12G G30U G35U C46U | 0.04 |
| G5A G21C G29C U43C | 0.01 |
| G5C A16G C18U U34A A41C U43C | 0.07 |
| G5A U20A A24G | 0.03 |
| G5A G22C U38A | 0.09 |
| G5A C13G G35C | 0.07 |
| G5A G19U G35A | 0.03 |
| G5C A16C G40U | 0.06 |
| G5C A6G A11U G17A A26G C31U | 0.02 |
| G5A G7U A24C G35A | 0.07 |
| G5A C13U G22C | 0.02 |
| G5C A12U A24G | 0.06 |
| G5A U9G A11C | 0.01 |
| G5A C23U U34G U43A | 0.05 |
| G5A G21U A39G | 0.02 |
| G5A U20A U34C | 0.04 |
| G5A U20A G36U A39G C46A | 0 |
| G5A C23G G36U U43G | 0.04 |

| Variant | self-cleavage |
| --- | --- |
| G5C A16G G21C A26U | 0.05 |
| G5C A11U U28A C31U C45A | 0.03 |
| G5A G7A C13G | 0.07 |
| G5A G27C U34A G36C | 0.01 |
| G5C A11G G30C C31A U43A C46G | 0.01 |
| G5A C10U C13A G27U G35U G40C G44U | 0.03 |
| G5A U9A G22A | 0.07 |
| G5C A16C G44A | 0.02 |
| G5A G29U A39U G40A | 0.01 |
| G5A C13G C15U G30C | 0.06 |
| G5A C13A G21C | 0.03 |
| G5C A16G G30A C42A U43A | 0.02 |
| G5A G17A C42U | 0.02 |
| G5A G33A U43C | 0.09 |
| G5C A11G C13A C37G G40A C45A | 0.01 |
| G5C A12U C31A G35U C46A | 0.02 |
| G5A C18A G21U | 0.02 |
| G5A C18G U20C C37G G44A C45G | 0 |
| G5A G27C C31U | 0.04 |
| G5A C31U U34C U38G | 0.02 |
| G5A C31G G33U | 0.02 |
| G5A C31G G33C | 0.17 |
| G5A C15A G17A G29A A41U | 0.03 |
